Laboratory results as given in PubChem BioAssay AID1159614 (National Center for Advancing Translational Sciences (NCATS), 2016).
Out of some 45,000 compounds screened, about 65 (0.1%) were called active. Calls follow the shape of the dose curve; as a rule, active = well fitted activation curve with a large enough effect; inconclusive = small, poorly fitted or top-dose-only effect; inactive = no such curve, though single readings can be large or run the other way. Some of the results follow.

Biological target: Galactocerebrosidase (Homo sapiens) (UniProt P54803)
Experiment: A Novel Cell-Based Assay to Identify Small Molecules for B -Galactocerebrosidase; also: 0% is about no effect; nearly all actives have a fitted effect of over 65% in size
Conditions: 145M-Twi-hGALC-G270D cells (Twitcher mouse brain line with human GALC G270D), HMU-beta-Gal fluorescence, 48 h; series mostly up to 57.5 µM; activation: at the top concentration
Summary of the method: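 Brain-derived Twitcher mouse 145M-Twi cells stably expressing human GALC-G270D or wild-type GALC, treated live, then residual GALC activity read by fluorescence of HMU-b-Gal substrate (0.1 mM final) in citrate-phosphate buffer pH 5.2 with sodium taurocholate. Signal increase indicates enhancement.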

UniProt P54803, sequence (P54803 whole entry, looked up): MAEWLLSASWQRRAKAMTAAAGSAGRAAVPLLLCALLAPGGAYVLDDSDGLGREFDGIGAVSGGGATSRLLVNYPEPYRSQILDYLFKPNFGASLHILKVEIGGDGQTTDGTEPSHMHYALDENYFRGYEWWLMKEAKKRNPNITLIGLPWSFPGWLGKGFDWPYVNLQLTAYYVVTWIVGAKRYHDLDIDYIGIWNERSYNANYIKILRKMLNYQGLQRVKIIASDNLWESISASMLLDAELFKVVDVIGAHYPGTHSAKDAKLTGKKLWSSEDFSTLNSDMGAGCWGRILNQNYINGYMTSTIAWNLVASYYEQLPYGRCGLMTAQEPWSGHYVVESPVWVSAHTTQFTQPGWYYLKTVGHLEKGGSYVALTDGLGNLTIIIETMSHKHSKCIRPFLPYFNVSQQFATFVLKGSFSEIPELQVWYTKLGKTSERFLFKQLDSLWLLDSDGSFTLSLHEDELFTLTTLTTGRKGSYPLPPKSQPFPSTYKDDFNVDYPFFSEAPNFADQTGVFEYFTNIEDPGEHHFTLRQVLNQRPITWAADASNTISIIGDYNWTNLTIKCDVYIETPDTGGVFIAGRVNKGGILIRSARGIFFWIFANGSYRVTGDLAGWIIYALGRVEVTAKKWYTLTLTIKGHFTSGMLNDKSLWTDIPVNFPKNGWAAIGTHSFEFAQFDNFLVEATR

activation, inactive:
COc1ccc(OC)c(NC(=O)Cc2c(C(=O)O)[nH]c3ccc(Cl)cc23)c1 -25.1%, CCc1ccccc1NC(=O)Cc1ccc(-n2c(C)nc3cccnc32)cc1 -12.9%, CC(=O)Nc1nonc1-c1nnc(SCc2ccccc2C)n1C -8.5%, CCOc1nc(NC(=O)NS(=O)(=O)Oc2cccc(F)c2)nc(-c2ccccc2)n1 -17.4%, COc1ccc(CNC(=O)c2ccc3c(c2)N(Cc2ccccc2F)C(=O)c2ccccc2S3=O)cc1 (centres undefined) -12%, CC(C)Cn1c(=O)c2sccc2n2c(CCCC(=O)NCC(C)c3ccccc3)nnc12 (centres undefined) -14.4%, O=C(NCCN1CCN(c2ccccc2F)CC1)C1COc2ccccc2C1 (centres undefined) 3.79%, Cc1ccc(NC(=O)c2cc3c(Cl)nc4ccc(C)cc4c3s2)c(Cl)c1 -9.88%, COc1ccc(NC(=O)CSc2nc3ccccc3n2CC(=O)N2CCCC(C)C2)cc1 (centres undefined) -12.8%, Cc1cc(C)n(-c2nc3cc(Cl)c(Cl)cc3nc2Nc2ccc(F)cc2C)n1 -29.9%, Cc1cccc(C(=O)Nc2c(-c3ccc(F)cc3)nc3ccccn23)c1 12.5%, CCn1c(=O)c2cc(C(=O)Nc3cc(C)c(Cl)cc3OC)sc2c2ccccc21 -1.53%, Cc1ccc(C)c(N2CCN(C(=O)c3cc4c(=O)n(Cc5cccnc5)ccc4nc3C)CC2)c1 -19.9%, O=C(c1ccc(Cl)cc1)N1CCCCC1CCN1CCOCC1 (centres undefined) -0.676%, Cc1cccc(CSc2nc3cccnc3n2Cc2ccc(C(=O)NCc3cccs3)cc2)c1 -5.36%, CCOC(=O)c1sc(NC(=O)c2nc3ncccn3n2)c(C(=O)OC(C)C)c1C -18.5%, CC(=O)N(Cc1cccnc1)c1nc2c(C)cc(C)cc2s1 5.74%, CCOc1ccccc1N1CC(c2nc3ccccc3n2CCOc2ccc(OC)cc2)CC1=O (centres undefined) -3%, COc1ccc(CNC(=O)c2cc(-c3cccs3)nc3ccccc23)c(OC)c1 3.26%, Cc1ccc(NS(=O)(=O)c2ccc3[nH]c4c(c3c2)CCCC4)c(C)c1 0.907%, CC1CCc2c(sc3nnn(Cc4ccccc4)c(=O)c23)C1 (centres undefined) -13%, Cc1ccc(-c2nc3ccccn3c2Nc2c(C)cccc2C)o1 -10.6%, Cc1nnc(N2CCCC(C(=O)Nc3ccccc3C(F)(F)F)C2)c2nn(-c3ccccc3)c(C)c12 (centres undefined) -9.08%, O=C(Cn1ncc2c([nH]c3ccccc32)c1=O)Nc1cc(F)ccc1F 9.59%, Cc1cccc(N2CCN(C(=O)C3CCN(S(=O)(=O)c4c(C)noc4/C=C/c4ccccc4F)CC3)CC2)c1C -0.21%, O=C(NCc1ccc2c(c1)OCO2)c1ccc2c(c1)N(Cc1cccc(Cl)c1)C(=O)c1ccccc1S2 -21.8%, Cc1ccc(C(=O)c2sc(Nc3ccccc3F)c(S(=O)(=O)c3ccccc3)c2N)c(C)c1 -17.6%, COc1ccc(C(=O)N(Cc2sccc2C)C2CCS(=O)(=O)C2)cc1Cl (centres undefined) -13.4%, CCN1CCN(C(=O)c2ccc3c(c2)N(Cc2ccc(Cl)cc2)C(=O)c2ccccc2S3(=O)=O)CC1 -12.3%, Cc1cc(C)c(S(=O)(=O)Nc2cc(-c3cn4ccccc4n3)ccc2C)cc1C -10.9%, O=C(NCc1ccc(F)cc1)c1ccc(CSc2nc3ccncc3n2Cc2ccc(F)cc2)cc1 -11.4%, CCc1cccc(C)c1NS(=O)(=O)c1c(C(=O)N2CCCCCC2)c(C)n(C)c1C -12.3%, Cc1ccc(Cl)cc1N1CCN(C(=O)CN2C(=O)COc3ccc(S(=O)(=O)N4CCOCC4)cc32)CC1 -17.7%, COc1ccc(Cl)cc1NC(=O)Cn1nnc2sc3c(c2c1=O)CCC(C(C)(C)C)C3 (centres undefined) 0.63%, Cc1cc(C)c(Cn2c3ccccc3c3cnn(CC(=O)NCCc4ccccc4)c(=O)c32)c(C)c1 8.01%, CCOC(=O)c1c(Nc2cccc(O)c2)nnc(-c2ccccc2)c1-c1ccccc1 -41.9%, O=C(Nc1nnc(S(=O)(=O)N2CCCCCC2)s1)c1ccc(Br)cc1 -11.2%, COc1c(Cl)cc(C(=O)Nc2cccc(-c3nc4ccccc4[nH]3)c2)cc1Cl -5.49%, CC(=O)c1ccc(NC2=NS(=O)(=O)c3ccccc32)cc1 -31.9%, COc1ccc(CCNC(=O)c2ccc3c(c2)CCN3S(=O)(=O)c2ccc(Cl)cc2)cc1 -8.49%, Cc1ccc(NC(=O)Cn2cc(S(=O)(=O)c3ccc(F)cc3)c(=O)c3cc4c(cc32)OCO4)cc1 -15.9%, Cc1ccc(NC(=O)CSc2nccn2C2CCCC2)cc1 -5.31%, COc1ccc(NC(=O)C2CCCN(S(=O)(=O)c3cn(C)cn3)C2)cc1Cl (centres undefined) -4.82%, COCCNC(=O)Cn1c(=O)n(Cc2ccc(C(=O)NCCc3ccc(OC)c(OC)c3)cc2)c(=O)c2ccccc21 23.7%, COc1cc(Cl)c(C)cc1NC(=O)CCCN1C(=O)C(c2ccccc2)Oc2cccnc21 (centres undefined) -27.7%, Cc1cccc(Oc2nc3ccccn3c(=O)c2/C=C(\C#N)c2nc3ccccc3s2)c1C -9.68%, COc1ccc(-n2c3c(c(=O)[nH]c2=O)C(NC(C)=O)(C(F)(F)F)C(=O)N3)cc1 (centres undefined) -29.1%, CCOc1ccccc1C1CC(=O)NC(C)=C1C(=O)OC1CCCCCC1 (centres undefined) -8.17%, CC(C)(C)C(=O)Cn1c(=O)n(CCCCCC(=O)NCc2ccc3c(c2)OCO3)c(=O)c2sccc21 -13.7%, COc1ccc(OC)c(NC(=O)c2ccc(-c3nc(CSc4ccccc4)c(C)o3)cc2)c1 -18.1%, CSc1cccc(NS(=O)(=O)c2ccc3[nH]cc(C(=O)N4CCCC4)c(=O)c3c2)c1 -8.99%, COc1ccccc1CCNC(=O)c1ccc(NC(=O)N2CC(C)Sc3ccccc32)cc1 (centres undefined) -6.58%, CCCCn1cc(S(=O)(=O)c2ccc(CC)cc2)c(=O)c2cc(F)c(N3CCCC(C)C3)cc21 (centres undefined) -26%, Cc1ccc(C(=O)CSc2nc3cc(C(=O)NC4CCCC4)ccc3c(=O)n2CC2CCCO2)cc1 (centres undefined) -1.46%, COc1cc(OC)c(NC(=O)c2c(C)nn(-c3ccc(C)cc3)c2-n2cccc2)cc1Cl 15%, COc1ccc(C(=O)NCCn2cc(SCC(=O)Nc3ccccc3)c3ccccc32)cc1OC -31.2%, Cc1ccc2nc(-c3ccc(Cl)c(NC(=O)c4cccnc4)c3)oc2c1 -6.17%, CN(C(=O)c1cc2c(=O)oc3ccccc3c2s1)c1ccc(F)cc1 -14.5%, CC(=O)N1CCCc2cc(S(=O)(=O)N3CCCCC3)ccc21 -19%, CCOc1ccccc1CNC(=O)c1cc2c(=O)n(Cc3ccccc3)ccc2nc1C 4.56%, Oc1ccc(Cl)c2cccnc12 -10%, CCOc1ccc(NC(=O)CSc2nccn2-c2cccc(C)c2C)cc1 -0.735%, Cc1ccc(Cl)cc1N1CCN(C(=O)C2CCCN(S(=O)(=O)c3ccc(Br)s3)C2)CC1 (centres undefined) -13.3%, COc1ccccc1NC(=O)CCn1cnc2ccccc2c1=O -17.7%, O=S(=O)(NCC(c1ccco1)S(=O)(=O)c1cccs1)c1ccc(F)c(C(F)(F)F)c1 (centres undefined) -17.6%, CCOC(=O)C1CCN(S(=O)(=O)c2cc(-c3onc(C)c3C)ccc2OC)CC1 -9.63%, Cc1ccc(OCC(=O)NCC(=O)OCc2cc(=O)n3nc(C)sc3n2)cc1 -19.4%, CCCCn1c2ccc(F)cc2c2nnc(SCCN3CCCCC3)nc21 -8.09%, COc1ccc(CNC(=O)c2ccc3c(c2)N(Cc2cccc(Cl)c2)C(=O)c2ccccc2S3)c(OC)c1 -8.28%, CC(C)c1ccc(NC(=O)CSC2=Nc3ccccc3C3=NC(CC(=O)NCc4ccc(F)cc4)C(=O)N23)cc1 (centres undefined) -16.2%, CCc1ccccc1NC(=O)Cn1c(=O)c2cccn2c2ccc(F)cc21 -8.99%, COc1ccc(CCNC(=O)CSc2ncc3c(n2)-c2cc(Cl)ccc2N(Cc2ccccc2)S3(=O)=O)cc1OC 4.62%, Cc1ccc(CNC(=O)c2nc(SCc3ccc(C)cc3)ncc2Cl)cc1 -14.3%, Cc1cccn2c(Nc3ccccc3)c(-c3ccc(N4CCOCC4)cc3)nc12 -29.3%, Cc1ccc(-n2c(=O)c3cccnc3n2CC(=O)Nc2cccc(C)c2C)cc1 -18.7%, CC(C)c1ccc(OC(=O)c2cc(-c3ccc4c(c3)OCCO4)on2)cc1 -10.7%, COCCCNC(=O)CCn1c(=O)c2ccccc2n(CC(=O)Nc2c(C)cc(C)cc2C)c1=O 0.0892%, COc1cccc2sc(N(Cc3cccnc3)C(=O)COc3ccccc3)nc12 -9.82%, Cc1nn(-c2ccccc2)c(OC(=O)c2ccccc2F)c1S(=O)(=O)c1ccccc1 -7.64%, CCOc1ccc(C(=O)Nc2nnc(SCc3cc(=O)c4cc(C)ccc4[nH]3)s2)cc1 -11.6%, CCC(=O)c1ccc(O)cc1 -8.64%, CCn1c(=O)c2cc(C(=O)N3CCN(c4cccc(Cl)c4)CC3)sc2c2ccccc21 -17.4%, CCN(CC)S(=O)(=O)c1ccc2c(c1)nc(CN(C)C(=O)c1cccc(Cl)c1)n2C -0.384%, COc1ccc(CCNC(=O)C2=C(C)C(=O)OC23CCCCC3)c(OC)c1OC -8.88%, CC1CCN(S(=O)(=O)c2ccc3c(c2)N(CC(=O)NCCCN2CCCCC2C)C(=O)CS3)CC1 (centres undefined) -8.81%, COc1cccc(N2CCN(C(=O)c3cccc(NC(=O)c4nsc5ccccc45)c3)CC2)c1 -14%, Cc1sc2c(c1C)c(=O)n(CCc1ccccc1)c(=O)n2Cc1ccccc1Cl -10.9%, COc1cc(CN(C(=O)c2ccccc2[N+](=O)[O-])c2ccccn2)cc(OC)c1OC 0.109%, Cc1ccc(C)c(NC(=O)CSc2nc(=O)n(CCN(C)C)c3c2CCC3)c1 -11%, CCc1ccccc1NC(=O)Nc1cc(C(=O)NCc2ccc(C(C)C)cc2)ccc1N1CCCC1 -11.1%, Cc1cc(NC(=O)c2ccc3c(c2)N(Cc2cccc(Cl)c2)C(=O)c2ccccc2S3=O)ccc1Br (centres undefined) -2.12%, CCc1ccc(NC(=O)CCS(=O)(=O)c2ccc3c(c2)CCN3C(C)=O)cc1 -0.835%, CC1CCCN(Cc2c(O)ccc3c(=O)c(Oc4ccccc4Cl)c(C(F)(F)F)oc23)C1 (centres undefined) -8.66%, Cc1ccc(S(=O)(=O)c2cn(Cc3ccccc3F)c3cc4c(cc3c2=O)OCO4)cc1 -3.71%
